Laboratory results as given in PubChem BioAssay AID662 (National Center for Advancing Translational Sciences (NCATS), 2007).
Out of some 71,000 compounds screened, about 1,800 (2.5%) were called active. The shares of active, inactive and inconclusive entries below differ from those in the screen. Calls follow the shape of the dose curve; as a rule, active = well fitted activation curve with a large enough effect in the signal ratio, with a control signal flat (not every such curve was filed as active); inconclusive = small, poorly fitted or top-dose-only effect, or effect the other way, or a change in a side signal; inactive = flat fitted curve, though single readings scatter; the % refers to the signal ratio. Potencies beside an inconclusive call are fits to weak or partial responses and may not hold up.

Experiment: Cell signaling CRE-BLA (Fsk stim); as to activity change, negative = inhibition: % of control where 0% means no effect
Conditions: CHO CRE-bla reporter (cAMP response element driving beta-lactamase), forskolin EC10, beta-lactamase ratio
Outline: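 Modulation of forskolin signalling: compounds in titration series added with EC10 NKH 477 to CHO cells carrying a CRE-driven beta-lactamase reporter, 3 h, 37C. CCF4 FRET ratio (460/530 nm, ex 405 nm) gives %activity and AC50.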

[1] = activity change, negative = inhibition: at 38.2 µM (top of the series) unless noted
Potency is read from the fitted curve at half-maximal effect; tags tell the direction and shape of the fitted curve.

With c1ccc(-c2oc3ncnc(NCCN4CCOCC4)c3c2-c2ccccc2)cc1 the Potency [1] was inconclusive: 3.98 µM [rising, single point].

With CCN1/C(=C/C(=O)c2ccco2)Sc2ccccc21 the Potency [1] was inconclusive: 10 µM [rising, partial curve].

With Cc1[nH]c2ccccc2c1C(O)CN1CCN(c2cccc(C(F)(F)F)c2)CC1 (stereo not given) the Potency [1] was inconclusive: 25.1 µM [rising, single point].

In the case of CCN(Cc1cc(Cl)cc(C)c1O)Cc1c(O)ccc2ccccc12, the activity change, negative = inhibition [1] is reported as inactive: -8.74% [at 7.6 µM].

For NCC(=O)Nc1ccccc1, the activity change, negative = inhibition [1] was inactive: -6.61% [at 7.6 µM].

In the case of N#Cc1ccc(CN2CCCC3(CCN(C(=O)c4cc(C(F)(F)F)cc(C(F)(F)F)c4)CC3)C2)cc1, the activity change, negative = inhibition [1] is reported as “inactive”.

With Cc1ccc(C(=O)CSC2=NC(N)=C(C#N)C3(CCCCC3)C2C(N)=O)cc1 (stereo not given) the Potency [1] was inconclusive: 0.0251 µM [rising, full curve, poor fit].

For CS(=O)(=O)N(CC(=O)NC1CCCCCC1)Cc1ccccc1, the activity change, negative = inhibition [1] was inconclusive: -0.836%.

For COc1ccc(C(=O)N2CCC[C@@]3(CCN(c4ccccn4)C3)C2)cc1, the activity change, negative = inhibition [1] was “inactive”.

For COc1cc2nc3c(c([Si](C)(C)C(C)(C)C)c2cc1OC)Cn1c-3cccc1=O, the Potency [1] was active: 15.8 µM.

In the case of COCCCNC(=O)CCc1nc2cccnc2n1Cc1ccc(OC)cc1, the activity change, negative = inhibition [1] is reported as inconclusive: -15.5%.

With CC1CCCCC1n1c(=S)[nH]c2ccccc2c1=O (stereo not given) the Potency [1] was inconclusive: 15.8 µM [rising, partial curve, poor fit].

For COCCn1c(=O)c(CCc2ccccc2)nc2cnc(N(C)C)nc21, the Potency [1] was active: 6.31 µM.

In the case of COc1ccccc1NC(=O)c1ccccc1NS(C)(=O)=O, the Potency [1] is reported as active: 2 µM.

In the case of CCCCc1ccc(NS(=O)(=O)N(C)C)cc1, the activity change, negative = inhibition [1] is reported as inconclusive: 6.37% [at 7.6 µM].

For CCNC(=O)c1ccccc1NC(=O)c1cccc(S(=O)(=O)N2CCC(C)CC2)c1, the Potency [1] was inconclusive: 10 µM [rising, single point].

For O=C(Nc1ccc(Oc2ccc(NC(=O)c3ccco3)c(NC(=O)c3ccco3)c2)cc1)c1ccco1, the activity change, negative = inhibition [1] was inconclusive: 26.2%.

For Cc1ccc(C2CC(c3ccccc3OC(F)F)Nc3ncnn32)cc1 (stereo not given), the activity change, negative = inhibition [1] was inconclusive: 11.8%.

With O=C(CCCC1=NS(=O)(=O)c2ccccc2N1)N1CCN(c2ccccc2)CC1 the Potency [1] was inconclusive: 6.31 µM [falling, partial curve, poor fit].

In the case of O=c1c2nnn(Cc3ccccc3)c2ncn1-c1ccccc1, the Potency [1] is reported as inconclusive: 0.00251 µM [rising, full curve, poor fit].

In the case of O=C(O)c1ccc(S(=O)(=O)c2ccc3c(c2)C(=O)N(Cc2ccco2)C3=O)cc1, the activity change, negative = inhibition [1] is reported as “inactive”.

In the case of COc1cc(C(c2sc3nc(C)nn3c2O)N2CCc3ccccc3C2)cc(OC)c1OC (stereo not given), the Potency [1] is reported as inconclusive: 12.6 µM [rising, single point].

In the case of CN1CCCC[C@@H]1CCN1c2ccccc2Sc2ccc(S(C)=O)cc21 (stereo not given in full), the activity change, negative = inhibition [1] is reported as inconclusive: 14% [at 7.6 µM].

In the case of CCCCOCCCNC(=O)Cc1cccs1, the activity change, negative = inhibition [1] is reported as inconclusive: 15.3% [at 7.6 µM].

In the case of COCC(=O)N1CCC[C@@]2(CCN(c3ccncc3)C2)C1, the activity change, negative = inhibition [1] is reported as “inactive”.

For CCOC(=O)N1CCC(NC(=O)c2cc3ccccn3n2)CC1, the activity change, negative = inhibition [1] was “inactive”.

With CN1C(=O)N(C)C2(CC1(C)C)CC(C)(C)N(C)C(=O)N2C the activity change, negative = inhibition [1] was “inactive”.

With CCC(C(=O)N1CCc2cc(OC)c(OC)cc2C1)c1ccccc1 (stereo not given) the activity change, negative = inhibition [1] was inconclusive: 5.55%.

For Cc1nccn1-c1c2c(c(C#N)c3nc4ccccc4n13)CCC2, the Potency [1] was inconclusive: 5.01 µM [rising, single point].

For CN1C(=O)C2(Nc3ccccc3-c3nc4ccccc4n32)c2ccccc21 (stereo not given), the activity change, negative = inhibition [1] was “inactive”.

For Nc1ccc(CCNc2ncnc3c2ncn3[C@@H]2O[C@@H](CO)[C@H](O)[C@@H]2O)cc1, the activity change, negative = inhibition [1] was “inactive”.

For CCN(CC)C(=O)c1sc2nc(-c3ccccn3)[nH]c(=O)c2c1C, the Potency [1] was inconclusive: 15.8 µM [rising, partial curve].

With CCn1c(SCC(=O)N2CCCc3ccccc32)nc2ccccc2c1=O the Potency [1] was inconclusive: 10 µM [rising, partial curve].

With CCOc1ccc(C2=Nn3cnnc3SC2)cc1 the activity change, negative = inhibition [1] was “inactive”.

With Cc1nn(-c2ccc(C(=O)O)cc2)c(N)c1-c1ccccc1 the activity change, negative = inhibition [1] was “inactive”.

For C=C1C(=O)O[C@@H]2[C@@H]1CC/C(C)=C\CC[C@@]1(C)O[C@H]21, the activity change, negative = inhibition (at 17.1 µM (top of the series)) was inconclusive: 2.77% [cytotoxic] and the activity change, negative = inhibition (at 38.2 µM (top of the series)) was inconclusive: -13.4%.

With C=CCNC(=O)C(C)N1C(=O)c2ccccc2C1=O (stereo not given) the activity change, negative = inhibition [1] was inconclusive: 11.9%.

With c1ccc(-c2nc(NC3CC3)nc(-n3ccnc3)n2)cc1 the Potency [1] was active: 0.501 µM.

In the case of N#CC1=C(N)SC(N)=C(C#N)C1c1cccc(Oc2ccccc2)c1, the activity change, negative = inhibition [1] is reported as inconclusive: -25.7%.
